# Source: the supplement of paper PMC8728848
# This is one part of the list.
# B1: B160 (Bifidobacterium sp) (protein)
# chain: MVSHNKRIVAALAAVAAMGIGLAGCGGSDTAGDTKSGSDGGVVNITYMHRLPDSEGMTLVNDIVAKWNKEHPNIQVKATKFDGNAADMIKKLETDVKAGNAPDLAQVGYAEVPEVFTKGLLQDVTDEAAKYKDDFASGPFALMQVDGKTYGLPQDTGPLTYFYNAAEFEKLGITVPKTADELIETAKKTAAQGKYIMTFTPDEAMMMMSGQAGASGPWYKVDGNSWVVNTQTKGSKAVADVYQQLIDNKAALTNPRWDASFDNSIQSGQLIGTVAAAWEAPLFIDSAGGTGAGEWKVTQLGDWFGNGTKTGANGGSGVAVLKGSKHPAEAMEFLDWFNTQVDDLVSQGLVVAATTADAKTPQKWSDYFSGQDVMAEFKTANDNMGDFTYMPGFSAVGAAMKQTAAKAADGSAKVSDVFDTAQKTSVDTLKNLGLSVKE
# Tests used:
# Experiment in all cases: glycan array binding signal (z-score within array); higher = stronger binding
# Conditions in all cases: glycan notation: IUPAC condensed, linker removed
# [1] = molecular target: Fuc(a1-2)[GalNAc(a1-3)]Gal(b1-3)GlcNAc(b1-6)GalNAc
# Method in brief: (§1)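 The binding signal is a Z-score computed within each array and averaged over linkers. Arrays of the same protein sequence at different concentrations or buffers were also averaged together. Data originate from 3228 arrays in the Consortium for Functional Glycomics database, kept only where the protein sequence was available.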
# [2] = molecular target: Fuc(a1-2)[GalNAc(a1-3)]Gal(b1-4)Glc
# Method in brief: as §1
# [3] = molecular target: Fuc(a1-2)[GalNAc(a1-3)]Gal(b1-4)GlcNAc
# Method in brief: as §1
# [4] = molecular target: Fuc(a1-2)[GalNAc(a1-3)]Gal(b1-4)GlcNAc(b1-2)Man
# Method in brief: as §1
# [5] = molecular target: Fuc(a1-2)[GalNAc(a1-3)]Gal(b1-4)GlcNAc(b1-2)Man(a1-3)[Fuc(a1-2)[GalNAc(a1-3)]Gal(b1-4)GlcNAc(b1-2)Man(a1-6)]Man(b1-4)GlcNAc(b1-4)GlcNAc
# Method in brief: as §1
# [6] = molecular target: Fuc(a1-2)[GalNAc(a1-3)]Gal(b1-4)GlcNAc(b1-2)Man(a1-3)[Fuc(a1-2)[GalNAc(a1-3)]Gal(b1-4)GlcNAc(b1-2)Man(a1-6)]Man(b1-4)GlcNAc(b1-4)[Fuc(a1-6)]GlcNAc
# Method in brief: as §1
# [7] = molecular target: Fuc(a1-2)[GalNAc(a1-3)]Gal(b1-4)GlcNAc(b1-3)Gal(b1-4)GlcNAc
# Method in brief: as §1
# [8] = molecular target: Fuc(a1-2)[GalNAc(a1-3)]Gal(b1-4)GlcNAc(b1-3)Gal(b1-4)GlcNAc(b1-3)Gal(b1-4)GlcNAc
# Method in brief: as §1
# [9] = molecular target: Fuc(a1-2)[GalNAc(a1-3)]Gal(b1-4)GlcNAc(b1-3)GalNAc
# Method in brief: as §1
# [10] = molecular target: Fuc(a1-2)[GalNAc(a1-3)]Gal(b1-4)GlcNAc(b1-3)[Fuc(a1-2)[GalNAc(a1-3)]Gal(b1-4)GlcNAc(b1-6)]GalNAc
# Method in brief: as §1
# [11] = molecular target: Fuc(a1-2)[GalNAc(a1-3)]Gal(b1-4)GlcNAc(b1-6)GalNAc
# Method in brief: as §1
# [12] = molecular target: Fuc(a1-2)[GalNAc(a1-3)]Gal(b1-4)[Fuc(a1-3)]GlcNAc
# Method in brief: as §1
# [13] = molecular target: Fuc(a1-2)[GalNAc(a1-3)]Gal(b1-4)[Fuc(a1-3)]GlcNAc(b1-3)GalNAc
# Method in brief: as §1
# [14] = molecular target: Fuc(a1-2)[GalNAc(a1-4)]Gal(b1-4)GlcNAc
# Method in brief: as §1
# [15] = molecular target: Fuc(a1-2)[GalNAc(b1-3)]Gal
# Method in brief: as §1
# [16] = molecular target: Fuc(a1-3)GlcNAc
# Method in brief: as §1
# [17] = molecular target: Fuc(a1-3)[Gal(b1-4)]Glc6S
# Method in brief: as §1
# [18] = molecular target: Fuc(a1-3)[Gal(b1-4)]GlcNAc
# Method in brief: as §1
# [19] = molecular target: Fuc(a1-3)[Gal(b1-4)]GlcNAc(b1-2)Man
# Method in brief: as §1
# [20] = molecular target: Fuc(a1-3)[Gal(b1-4)]GlcNAc(b1-2)Man(a1-3)[Fuc(a1-3)[Gal(b1-4)]GlcNAc(b1-2)Man(a1-6)]Man(b1-4)GlcNAc(b1-4)GlcNAc
# Method in brief: as §1
# [21] = molecular target: Fuc(a1-3)[Gal(b1-4)]GlcNAc(b1-2)Man(a1-3)[Fuc(a1-3)[Gal(b1-4)]GlcNAc(b1-2)Man(a1-6)]Man(b1-4)GlcNAc(b1-4)[Fuc(a1-6)]GlcNAc
# Method in brief: as §1
# [22] = molecular target: Fuc(a1-3)[Gal(b1-4)]GlcNAc(b1-3)Gal(b1-3)[Fuc(a1-4)]GlcNAc
# Method in brief: as §1
# [23] = molecular target: Fuc(a1-3)[Gal(b1-4)]GlcNAc(b1-3)Gal(b1-4)[Fuc(a1-3)]GlcNAc
# Method in brief: as §1
# [24] = molecular target: Fuc(a1-3)[Gal(b1-4)]GlcNAc(b1-3)Gal(b1-4)[Fuc(a1-3)]GlcNAc(b1-3)Gal(b1-4)[Fuc(a1-3)]GlcNAc
# Method in brief: as §1
# [25] = molecular target: Fuc(a1-3)[Gal(b1-4)]GlcNAc(b1-3)GalNAc
# Method in brief: as §1
# [26] = molecular target: Fuc(a1-3)[Gal(b1-4)]GlcNAc(b1-6)GalNAc
# Method in brief: as §1
# [27] = molecular target: Fuc(a1-3)[Gal(b1-4)]GlcNAc(b1-6)[Gal(b1-3)GlcNAc(b1-3)]Gal(b1-4)Glc
# Method in brief: as §1
# [28] = molecular target: Fuc(a1-3)[Gal(b1-4)]GlcNAc6S
# Method in brief: as §1
# [29] = molecular target: Fuc(a1-3)[Gal3S(b1-4)]Glc
# Method in brief: as §1
# [30] = molecular target: Fuc(a1-3)[Gal3S(b1-4)]GlcNAc
# Method in brief: as §1
# [31] = molecular target: Fuc(a1-3)[Gal3S(b1-4)]GlcNAc6S
# Method in brief: as §1
# [32] = molecular target: Fuc(a1-3)[GalNAc(b1-4)]GlcNAc
# Method in brief: as §1
# [33] = molecular target: Fuc(a1-3)[GalNAc(b1-4)]GlcNAc6S
# Method in brief: as §1
# [34] = molecular target: Fuc(a1-4)GlcNAc
# Method in brief: as §1
# [35] = molecular target: Fuc(b1-3)GlcNAc
# Method in brief: as §1
# [36] = molecular target: Gal(a1-2)Gal
# Method in brief: as §1
# [37] = molecular target: Gal(a1-3)Gal
# Method in brief: as §1
binder,measurement,setting,value
B1,glycan array binding signal (z-score),[1],-0.147
same,glycan array binding signal (z-score),[2],-0.146
same,glycan array binding signal (z-score),[3],-0.171
same,glycan array binding signal (z-score),[4],-0.174
same,glycan array binding signal (z-score),[5],-0.127
same,glycan array binding signal (z-score),[6],-0.101
same,glycan array binding signal (z-score),[7],-0.184
same,glycan array binding signal (z-score),[8],-0.117
same,glycan array binding signal (z-score),[9],-0.177
same,glycan array binding signal (z-score),[10],-0.16
same,glycan array binding signal (z-score),[11],-0.17
same,glycan array binding signal (z-score),[12],-0.175
same,glycan array binding signal (z-score),[13],-0.135
same,glycan array binding signal (z-score),[14],-0.177
same,glycan array binding signal (z-score),[15],-0.16
same,glycan array binding signal (z-score),[16],-0.183
same,glycan array binding signal (z-score),[17],-0.115
same,glycan array binding signal (z-score),[18],-0.175
same,glycan array binding signal (z-score),[19],-0.173
same,glycan array binding signal (z-score),[20],-0.182
same,glycan array binding signal (z-score),[21],-0.111
same,glycan array binding signal (z-score),[22],-0.164
same,glycan array binding signal (z-score),[23],-0.148
same,glycan array binding signal (z-score),[24],-0.14
same,glycan array binding signal (z-score),[25],-0.166
same,glycan array binding signal (z-score),[26],-0.156
same,glycan array binding signal (z-score),[27],-0.155
same,glycan array binding signal (z-score),[28],-0.152
same,glycan array binding signal (z-score),[29],-0.13
same,glycan array binding signal (z-score),[30],-0.163
same,glycan array binding signal (z-score),[31],-0.145
same,glycan array binding signal (z-score),[32],-0.159
same,glycan array binding signal (z-score),[33],-0.17
same,glycan array binding signal (z-score),[34],-0.176
same,glycan array binding signal (z-score),[35],-0.182
same,glycan array binding signal (z-score),[36],-0.156
same,glycan array binding signal (z-score),[37],-0.146
